Measured values from publication PMC4336329 (PLoS ONE, 2015).
The whole screen tested about 310,000 compounds, of which about 2,200 (0.71%) showed an effect of 50% or more. The effect is printed as a negative number. This is one part of the list.

Molecular target: human ether-à-go-go-related gene (hERG) potassium channel (human, UniProt Q12809)
Assay: primary screen, population patch clamp on CHO cells stably expressing hERG

Chain of human ether-à-go-go-related gene (hERG) potassium channel (Q12809 whole entry, looked up): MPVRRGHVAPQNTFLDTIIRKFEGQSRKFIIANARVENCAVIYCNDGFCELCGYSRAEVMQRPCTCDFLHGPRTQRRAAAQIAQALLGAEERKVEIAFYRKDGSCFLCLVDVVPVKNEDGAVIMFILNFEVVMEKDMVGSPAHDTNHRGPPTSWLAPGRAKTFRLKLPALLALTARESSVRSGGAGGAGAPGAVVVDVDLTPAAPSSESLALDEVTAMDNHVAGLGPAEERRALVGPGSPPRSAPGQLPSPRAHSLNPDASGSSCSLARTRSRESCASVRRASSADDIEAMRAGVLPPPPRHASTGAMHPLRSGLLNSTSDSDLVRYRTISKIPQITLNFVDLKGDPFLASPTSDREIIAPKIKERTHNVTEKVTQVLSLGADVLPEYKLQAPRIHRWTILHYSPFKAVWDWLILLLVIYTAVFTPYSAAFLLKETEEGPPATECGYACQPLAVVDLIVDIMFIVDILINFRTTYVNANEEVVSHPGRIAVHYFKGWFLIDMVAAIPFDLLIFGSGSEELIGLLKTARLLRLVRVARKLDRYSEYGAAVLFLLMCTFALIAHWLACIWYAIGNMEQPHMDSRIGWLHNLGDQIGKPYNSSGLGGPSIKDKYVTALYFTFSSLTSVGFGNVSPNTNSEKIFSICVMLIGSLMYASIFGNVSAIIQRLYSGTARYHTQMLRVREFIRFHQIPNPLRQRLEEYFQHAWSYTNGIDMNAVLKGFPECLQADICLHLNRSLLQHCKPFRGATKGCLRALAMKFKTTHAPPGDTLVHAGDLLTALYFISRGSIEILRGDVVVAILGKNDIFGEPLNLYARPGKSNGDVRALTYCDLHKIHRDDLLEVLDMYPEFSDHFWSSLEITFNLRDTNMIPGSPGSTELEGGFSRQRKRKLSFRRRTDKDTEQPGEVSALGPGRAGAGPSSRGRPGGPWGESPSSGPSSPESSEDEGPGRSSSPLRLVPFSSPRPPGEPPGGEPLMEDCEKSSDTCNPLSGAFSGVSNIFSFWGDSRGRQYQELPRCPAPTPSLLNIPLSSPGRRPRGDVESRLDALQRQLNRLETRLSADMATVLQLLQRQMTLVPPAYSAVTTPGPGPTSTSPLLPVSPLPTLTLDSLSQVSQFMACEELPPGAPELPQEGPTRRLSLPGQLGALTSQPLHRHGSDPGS

SMILES	hERG current change (%, negative = inhibition) at 1uM
CCOC(=O)c1sc(-c2cccc([N+](=O)[O-])c2)cc1N	17%
CCc1cccc(C)c1NC(=O)C1CCCO1 (stereo not drawn)	8.08%
CNC(=S)Nc1sc2c(c1C(=O)OC)CCC2	11.1%
O=C(NC(=S)Nc1ccc2oc(-c3cccnc3)nc2c1)c1cccc(Cl)c1	0.287%
CCCNc1nc2c(c(=O)[nH]c(=O)n2C)n1CCc1ccccc1	9.41%
COC(=O)c1sccc1NC(=O)c1c(C)c(-c2cccc(Cl)c2)nc2ccccc12	19.3%
O=C(CNC(=O)c1ccccc1F)NCCOc1ccccc1Cl	15.9%
CCOC(=O)CNC(=O)c1cn(CC(C)C)c(=O)c2cc(OC)c(OC)cc12	-2.37%
CC(C)N(Cc1nc(-c2ccc(Cl)cc2)no1)C(=O)C12CC3CC(CC(C3)C1)C2	10.5%
COc1ccc(C)cc1NC(=O)C1CCCN(S(=O)(=O)c2ccc3c(c2)CCCN3C(C)=O)C1 (stereo not drawn)	10%
CCOC(=O)C(NC(=O)c1ccccc1)(Nc1cc(C)on1)C(F)(F)F (stereo not drawn)	6.71%
C(=N\Nc1nc(N2CCOCC2)nc(N2CCOCC2)n1)/c1ccncc1	13.2%
Cc1ccc(OCC(=O)NNC(=S)NC(=O)C2CCCCC2)c(C)c1	0.991%
O=C1C(=O)N(c2ccccn2)C(c2cccc([N+](=O)[O-])c2)/C1=C(/O)c1ccc(Br)cc1 (stereo not drawn)	14%
Cc1ccc2[nH]c(=O)c(CN(CCCN(C)C)C(=O)Nc3ccc(Cl)cc3)cc2c1	-62.7%
COC(=O)CC1C(=O)NCCN1C(=S)Nc1ccccc1Cl (stereo not drawn)	13%
O=C(CN1C(=O)NC2(CCCCC2)C1=O)Nc1cccc(S(=O)(=O)N2CCCC2)c1	-1.64%
Cc1nc(SCC(=O)Nc2ccc(CN3CCCC3)cc2)c2c(C)c(C)sc2n1	-2.17%
C/C(=N\OCC(=O)Nc1ccccc1Br)c1cccs1	10.7%
Cc1cc(-c2ccc(Cl)s2)n[nH]1	14%
Cc1ccc(CNS(=O)(=O)c2ccc3c(c2)NC(=O)CO3)cc1	5.26%
CCOc1ccc(N(CC(=O)NCc2cccnc2)S(=O)(=O)c2ccc(F)cc2)cc1	7.16%
N#CC(CCN1CCOCC1)(c1ccccc1)c1ccccc1	5.65%

SMILES	hERG current change (%, negative = inhibition) at 1uM
O=C(O)CCC(=O)N1N=C(c2cccs2)CC1c1ccc(Br)cc1 (stereo not drawn)	9.88%
COc1ccc(Cc2nnc(SCC(=O)N3CCCC3)o2)cc1	12.9%
Cc1nc(N/N=C/c2ccccn2)sc1C	21.1%
COCCCN=C(c1ccco1)n1c(=S)nc(-c2ccco2)n(CCCOC)c1=S	-7.66%
CCN(CC)S(=O)(=O)c1cc([N+](=O)[O-])ccc1NNC(=O)Nc1ccccc1OC	5.04%
CC12CCC(C(=O)N3CCCc4ccccc43)(OC1=O)C2(C)C (stereo not drawn)	14.1%
Cc1ccc(C(=O)Nc2nc3ccc(S(C)(=O)=O)cc3s2)s1	10.5%
Cc1nc2c(Cl)cc(Cl)cc2[nH]1	5.13%
Cc1ccc(S(=O)(=O)N2CCCC2C(=O)Nc2cc(C)on2)cc1 (stereo not drawn)	11.4%
COc1cccc(C(=O)COc2ccccc2N2C(=O)C3C4C=CC(C4)C3C2=O)c1 (stereo not drawn)	0.0618%
O=C(/C=C/c1cccc(Cl)c1)NCc1cccs1	1.58%
Cc1cccc2cc(CN(CC3CCCO3)C(c3nnnn3Cc3ccco3)C(C)C)c(=O)[nH]c12 (stereo not drawn)	7.31%
Cc1ccccc1CNc1nnnn1C	11.5%
O=C1CN=C(c2ccccc2)c2c(sc3c2CCCC3)N1	5.05%
COC(=O)N1CC=CC1(C)C(=O)NCc1cc(F)cc(C(F)(F)F)c1 (stereo not drawn)	11.4%
CC(C)c1ccc(/C=C2\C(=N)N3N=C(CC(=O)N4CCCCC4)SC3=NC2=O)cc1	21.5%
OC(COc1cccc2ccccc12)CN1CCN(c2ccccc2)CC1 (stereo not drawn)	7.19%
CN(C)C/C=C(\c1ccc(Br)cc1)c1cccnc1.Cl.O	-35.3%
CN1CCN(NC(=O)CC(C)(C)C)CC1	1.81%
O=C(O)c1c(-n2cccc2)sc2c1CCCC2	11.4%
COC(=O)C1=C(O)CSC1=Nc1ccccc1	-9.82%
O=C(c1ccccc1)c1nn(-c2ccc(Cl)cc2)cc1C(=O)c1cc2ccccc2oc1=O	6.34%
CC1(OC(=O)C2CCCC2)C(=O)C=C2C=C(C3CC3)OC=C2C1=O (stereo not drawn)	4.57%

SMILES	hERG current change (%, negative = inhibition) at 1uM
Cc1noc(C)c1COc1cccc(C(=O)OC(C)C(=O)Nc2ccc3c(c2)OCO3)c1 (stereo not drawn)	-15.9%
CCOc1ccc(S(=O)(=O)Nc2ccc(Cl)cn2)c(C)c1C	7.79%
CCOC(=O)C1CCCN(C(=O)/C=C/c2cccc([N+](=O)[O-])c2)C1 (stereo not drawn)	-14.5%
O=C(CCNC(=O)C1CCN(S(=O)(=O)c2ccccc2)CC1)NCc1ccccn1	14.3%
O=c1c(-c2cnn(-c3ccccc3)c2)coc2cc(O)ccc12	12.5%
Cn1cc(C(=O)N/N=C/c2ccc([N+](=O)[O-])cc2)c2ccccc21	9.99%
O=C(CN1CC(c2ccccc2)CC1=O)Nc1cccc(F)c1 (stereo not drawn)	3.88%
COC(=O)c1cc(OC)c(OC)cc1NC(=S)N1CCN(c2ccccn2)CC1	0.439%
COc1ccccc1CNC(=O)COC(=O)CCN=C1NS(=O)(=O)c2ccccc21	0.349%
CC(C)CCNC(=O)C1CCCN1C(=O)NC1CCCCC1 (stereo not drawn)	13.9%
COC(=O)c1ccc(NC(=S)N2CCN(Cc3ccccc3)CC2)cc1	6.61%
CCc1nn2c(N)c(/C=C3\C=Nc4ccccc43)c(=O)nc2s1	12.7%
O=C(N/N=C/c1cccnc1)c1cc(-c2ccc(Cl)cc2)nc2ccccc12	11.1%
O=C(OCn1nnc2ccccc2c1=O)C1CCCCC1	6.6%
CCN(CC)C(=O)COc1cccc2ccccc12	15.7%
Cc1[nH]nc(-c2ccc(O)c(C)c2O)c1Oc1ccccc1	-5.33%
CC(C)CCN1C(=O)c2ccc(C(=O)Nc3ccc(Br)cc3C(=O)O)cc2C1=O	21.6%
CCN(C(=S)NC(=O)C1CC1)c1ccccc1	10.4%
O=C(CN(c1ccc(Cl)cc1)S(=O)(=O)c1ccccc1)N1CCN(c2ccccc2)CC1	7.61%
Cc1cc(C)c(S(=O)(=O)N2CCN(S(=O)(=O)N3CCOCC3)CC2)c(C)c1	8.8%
COc1cccc(C(=O)NCc2cccnc2)c1	10.1%
CCC1=NN2C(=N)/C(=C/c3cc(C)n(Cc4ccccc4)c3C)C(=O)N=C2S1	10%
Cc1ccc(-n2c(=S)[nH]c3sc4c(c3c2=O)CCc2ccccc2-4)cc1	17.4%

SMILES	hERG current change (%, negative = inhibition) at 1uM
COC(=O)C1=C(C)N=C2SCCC(=O)N2C1c1ccc(C(=O)OC)cc1 (stereo not drawn)	-3.74%
CCOC(=O)c1ccccc1Nc1cn(C(C)=O)c2ccccc12	4.49%
COCc1nc(-c2ccc(-c3ccc(OC)cc3)nc2OC)no1	16.4%
C=CCC(=O)N(CC)CC1CCCN(CCc2cccc(F)c2)C1 (stereo not drawn)	-17.6%
O=C(CCCSc1nc2ccccc2[nH]1)NC1CCCCC1	18.1%
Fc1ccc2[nH]c3c(N4CCN(c5ccccc5)CC4)ncnc3c2c1	7.4%
CCCNCc1nnc(-c2ccccc2Cl)o1	5.32%
COC(=O)c1ccc2c(c1)C(=O)N(C1CCCCC1)C2=O	4.05%
Cc1ccc(-n2c(C)c3c(C)nnc(C)c3c2C)cc1N	6.08%
Cc1ccc(N2C(=O)N(CC(=O)NC(c3ccccc3)c3ccccc3)C(=O)C2C)cc1 (stereo not drawn)	5.84%
O=C1CC(c2ccccc2)n2ncnc2N1 (stereo not drawn)	-4.79%
CCN(CC)CCCNC(=O)C1c2cc(OC)c(OC)cc2C(=O)N(C)C1c1cccnc1 (stereo not drawn)	13.7%
COc1ccc(N(CC(=O)NCc2ccccc2Cl)S(=O)(=O)c2c(C)noc2C)cc1	13.7%
Cc1cc(C(=O)NCC2CCCO2)n(-c2ccccc2)n1 (stereo not drawn)	2.41%
O=C(CNc1ccc2ccccc2c1)N/N=C/C=C/c1cccc([N+](=O)[O-])c1	13.8%
CC1CCCCN1C(=O)CSc1nnc(-c2cccs2)o1 (stereo not drawn)	9.89%
Cc1nnc(N(C)C(=O)c2cnccn2)s1	6.59%
COc1cc2c(cc1N/C=C(\C#N)c1nc(-c3ccccc3)cs1)oc1ccccc12	6.05%
O=C(N/N=C/c1cccc([N+](=O)[O-])c1)c1cnccn1	-4.22%
COc1cc(N/N=C/c2ccc(N(C)C)cc2)ncn1	12.7%
O=C(Nc1ccc(Br)c2cccnc12)c1ccc(Cn2cc([N+](=O)[O-])cn2)o1	7.15%
